According to the supplement of paper PMC4967469:
The IC50 comes from the fitted curve, where viability falls to half of the control; a fit beyond the top or the lowest dose is shown as a bound at that dose. AUC sums up the same curve from the lowest dose to the 256-fold higher top dose; values near 1 show little effect. For some assays here: Any top dose called inferred comes from the curve model; the source does not state it. For some assays here: An entry number marks a drug with two screens in the source, which often give different values.

Tests used:
Test in all cases: Viability of human cancer cell lines after 72 h of drug (GDSC screen)
[1] = compound: COc1cc(O)c2c(c1)/C=C/C[C@H](O)[C@H](O)C(=O)/C=C\C[C@H](C)OC2=O [(5Z)-7-Oxozeaenol]; conditions: top dose 10 µM; top dose inferred
Method: (§1)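 Human cancer cell lines in 384-well plates, medium with 10% serum, drug for 72 h over a 256-fold dose range (nine 2-fold or five 4-fold steps up to the top dose). Adherent lines were fixed and stained with the nucleic acid dye Syto60, suspension lines read with resazurin; signal relative to control wells, capped at 0 and 100%. One two-parameter sigmoid per drug and line, fitted in a mixed model over all curves with the slope shared within a line.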

[2] = compound: COc1cc(N2CCC(O)CC2)ccc1Nc1cc(Nc2ccccc2S(=O)(=O)C(C)C)c2cc[nH]c2n1 [MPS-1-IN-1]; conditions: top dose 20 µM; top dose inferred
Method: as §1

[3] = compound: Nc1ccn([C@@H]2O[C@H](CO)[C@@H](O)[C@@H]2O)c(=O)n1 [Cytarabine]; conditions: top dose 2 µM
Method: as §1

[4] = compound: C=CC(=O)Nc1cc(-n2c(=O)ccc3cnc4ccc(-c5cn[nH]c5)cc4c32)ccc1C [QL-X-138]; conditions: top dose 10.24 µM; top dose inferred
Method: as §1

[5] = compound: COc1nc(C)cnc1NS(=O)(=O)c1cccnc1-c1ccc(-c2nnco2)cc1 [Zibotentan]; conditions: top dose 20 µM; top dose inferred
Method: as §1

[6] = compound: Cc1ccc(F)c(NC(=O)Nc2ccc(-c3cccc4[nH]nc(N)c34)cc2)c1 [ABT-869]; conditions: top dose 1.024 µM; top dose inferred
Method: as §1

[7] = compound: COc1cc2ncnc(-n3nc(-c4ccccn4)nc3N)c2cc1OC [CP466722]; conditions: top dose 16 µM; top dose inferred
Method: as §1

[8] = compound: Cc1cnc(-c2cnc(NCCNc3ccc(C#N)cn3)nc2-c2ccc(Cl)cc2Cl)[nH]1 [CHIR-99021]
Method: as §1

[9] = compound: C[C@]1(c2nc3c(C(N)=O)cccc3[nH]2)CCCN1 [ABT-888]; conditions: top dose 5 µM; top dose inferred
Method: as §1

[10] = compound: CCn1c(-c2nonc2N)nc2cnc(Oc3cccc(NC(=O)c4ccc(OCCN5CCOCC5)cc4)c3)cc21 [GSK269962A]; conditions: top dose 5 µM; screen: GDSC drug entry 1192; top dose inferred
Method: as §1

[11] = compound: O=c1cc(-c2cccc3c2Sc2ccccc2S3)oc(N2CCOCC2)c1 [KU-55933]; conditions: top dose 10 µM
Method: as §1

[12] = top dose 2.56 µM, screen: GDSC drug entry 154
[13] = top dose 10 µM, screen: GDSC drug entry 1241, top dose inferred

Cell Line	AUC [1]	IC50 [1] [µM]	AUC [2]	IC50 [2] [µM]	AUC [3]	IC50 [3] [µM]	AUC [4]	IC50 [4] [µM]	AUC [5]	IC50 [5] [µM]	AUC [6]	IC50 [6] [µM]	AUC [7]	IC50 [7] [µM]	AUC [8, 12]	IC50 [8, 12] [µM]	AUC [8, 13]	IC50 [8, 13] [µM]	AUC [9]	IC50 [9] [µM]	AUC [10]	IC50 [10] [µM]	AUC [11]	IC50 [11] [µM]
H513 (mesothelioma, semi-adherent)	0.73	3.3	0.986	> 20	0.86	> 2	0.896	> 10.2	0.985	> 20	0.974	> 1.02	0.939	> 16	0.984	> 2.56	0.933	> 10	0.986	> 5	0.984	> 5	0.965	> 10
MOLT-16 (T-cell lymphoblastic leukaemia, suspension)	0.55	0.831	–	–	0.294	0.0378	–	–	–	–	–	–	–	–	–	–	0.847	5.24	0.984	> 5	0.566	0.455	0.992	> 10
NCC010 (kidney, adherent)	0.795	5.02	–	–	0.754	0.72	–	–	–	–	–	–	–	–	–	–	0.861	9.5	0.986	> 5	0.966	> 5	0.956	> 10
NCI-H146 (small cell lung carcinoma, suspension)	0.937	> 10	–	–	0.958	> 2	–	–	–	–	–	–	–	–	–	–	0.995	> 10	0.988	> 5	0.979	> 5	0.981	> 10
NCI-H508 (large intestine, semi-adherent)	0.899	> 10	–	–	0.908	> 2	–	–	–	–	–	–	–	–	–	–	0.95	> 10	0.951	> 5	0.854	> 5	0.846	> 10
NCI-H835 (lung carcinoid, suspension)	0.875	9.02	–	–	0.991	> 2	–	–	–	–	–	–	–	–	–	–	0.99	> 10	0.989	> 5	0.975	> 5	0.985	> 10
NCI-H1105 (small cell lung carcinoma, suspension)	0.819	4.44	–	–	0.931	> 2	–	–	–	–	–	–	–	–	–	–	0.993	> 10	0.993	> 5	0.962	> 5	0.992	> 10
NCI-H1341 (small cell lung carcinoma, suspension)	0.706	2.14	–	–	0.988	> 2	–	–	–	–	–	–	–	–	–	–	0.827	4.94	0.992	> 5	0.909	> 5	0.967	> 10
NCI-H2052 (mesothelioma, adherent)	–	–	0.979	> 20	0.875	> 2	0.925	> 10.2	0.981	> 20	0.966	> 1.02	0.902	> 16	0.981	> 2.56	–	–	0.982	> 5	–	–	0.978	> 10
NCI-N87 (stomach, adherent)	0.881	> 10	–	–	0.814	1.77	–	–	–	–	–	–	–	–	–	–	0.877	> 10	0.955	> 5	0.97	> 5	0.978	> 10
PWR-1E (prostate, adherent)	0.658	1.71	–	–	0.767	0.738	–	–	–	–	–	–	–	–	–	–	0.87	9.26	0.98	> 5	0.807	2.54	0.943	> 10
RCH-ACV (B-cell leukaemia, suspension)	0.798	3.83	–	–	0.332	0.0468	–	–	–	–	–	–	–	–	–	–	0.839	5.16	0.984	> 5	0.521	0.352	0.896	8.46
RH-18 (rhabdomyosarcoma, adherent)	0.771	4.39	–	–	0.951	> 2	–	–	–	–	–	–	0.816	10.5	–	–	0.954	> 10	0.984	> 5	0.91	> 5	0.954	> 10
SK-GT-2 (stomach, adherent)	0.824	6.38	–	–	0.823	1.26	–	–	–	–	–	–	–	–	–	–	0.971	> 10	0.965	> 5	0.919	> 5	0.962	> 10
SK-MEL-31 (melanoma, adherent)	0.792	5.98	–	–	0.878	> 2	–	–	–	–	–	–	–	–	–	–	0.905	> 10	0.985	> 5	0.959	> 5	0.975	> 10
SUP-B8 (B-cell leukaemia, suspension)	0.684	2.04	–	–	0.987	> 2	–	–	–	–	–	–	–	–	–	–	0.988	> 10	0.989	> 5	0.929	> 5	0.934	> 10
TC-YIK (cervix, suspension)	0.738	2.67	–	–	0.862	1.35	–	–	–	–	–	–	–	–	–	–	0.938	> 10	0.991	> 5	0.629	0.672	0.973	> 10
VMRC-LCD (lung adenocarcinoma, adherent)	0.793	3.75	–	–	0.874	1.41	–	–	–	–	–	–	–	–	–	–	0.992	> 10	0.993	> 5	0.807	2.08	0.991	> 10
ZR-75-30 (breast, adherent)	0.899	> 10	–	–	0.859	> 2	–	–	–	–	–	–	–	–	–	–	0.975	> 10	0.983	> 5	0.942	> 5	0.975	> 10
